{"source": "PubChem BioAssay AID504832", "about": "(National Center for Advancing Translational Sciences (NCATS), 2011)", "note": "Several values for one entry are separate records, joined by “and”; a condition that tells them apart may be missing. Equal entries are not always repeated. The whole screen tested about 310,000 compounds, of which about 18,000 (5.8%) were called active. Inconclusive means that the source gave no clear call. Such entries were picked first, then a sample of the others. Calls come from the whole dose curve; as a rule, active = well fitted inhibition curve with a large enough effect; inconclusive = small, poorly fitted or top-dose-only effect, or another doubt; inactive = no such curve, though single readings can be large or run the other way. Potencies of inconclusive entries are doubtful fits and often do not repeat."}
{"assay": "Primary qHTS for delayed death inhibitors of the malarial parasite plastid, 48 hour incubation; note: potency is the fitted concentration of half-maximal effect; tags give direction and shape of the fitted curve; for activity change, negative = inhibition: % is set by controls: 0 for no effect and ±100 for the full control effect", "details": "P. falciparum luciferase growth in erythrocytes; series mostly up to 28.7 µM; activity change, negative = inhibition: at the top concentration", "method_in_brief": "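Erythrocytes infected with P. falciparum carrying an integrated firefly luciferase reporter (2% hematocrit, 0.1% parasitemia final) were exposed to compounds in RPMI 1640 with 0.5% Albumax at 37 C, 5% CO2. Growth inhibition was scored as reduced luminescence.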"}
{"molecule": "CC(C)CC(NC(=O)CCCNC(=O)CCC(=O)OC1O[C@H]2OC3(C)CC[C@H]4[C@H](C)CCC(C1C)C24OO3)C(=O)O", "note": "(stereo partly drawn)", "Potency": "inconclusive: 0.0033 µM [inhibitor, full curve, poor fit]"}
{"molecule": "O=C(NCc1ccco1)c1cc2sccc2n1Cc1ccc(F)cc1", "Potency": "inconclusive: 18.5 µM [inhibitor, single point]"}
{"molecule": "CCOC(=O)c1cnc2c(OC)cccc2c1Oc1ccccc1", "Potency": "inconclusive: 0.828 µM [inhibitor, partial curve, poor fit]"}
{"molecule": "CC[N+](C)(C)c1cccc(O)c1", "Potency": "inconclusive: 809 nM [inhibitor, partial curve] and inconclusive: 3.29 µM [inhibitor, partial curve]"}
{"molecule": "COC(=O)C1=C(c2c(C)noc2C)C[C@@H]2CC[C@H]1N2C(=O)NCc1ccc(C(F)(F)F)cc1", "Potency": "inconclusive: 9.28 µM [inhibitor, single point]"}
{"molecule": "COc1ccc(-c2cc(=O)oc3cc(OC(C)C(=O)Nc4ccc(CN5CCOCC5)cc4)ccc23)cc1", "note": "(stereo not drawn)", "Potency": "inconclusive: 10.4 µM [inhibitor, single point]"}
{"molecule": "C/C(=N\\Nc1nc(N)cc(Cl)n1)c1ccc(Cl)c(Cl)c1", "Potency": "inconclusive: 11.7 µM [inhibitor, partial curve]"}
{"molecule": "CCCCC(NC(=O)c1ccccc1)C(=O)OCC(=O)N1c2ccccc2Sc2ccccc21", "note": "(stereo not drawn)", "Potency": "inconclusive: 0.185 µM [inhibitor, full curve]"}
{"molecule": "O=[N+]([O-])c1cccc(N/N=C/c2cccc3ccccc23)c1", "activity change, negative = inhibition": "inactive: 62.2%"}
{"molecule": "N#C/C(=N\\Nc1ccccc1F)c1nc(-c2ccccc2)cs1", "activity change, negative = inhibition": "inactive: 33.3%"}
{"molecule": "O=C(COC(=O)/C=C/c1ccccc1Cl)NC(=O)Cc1ccccc1", "activity change, negative = inhibition": "inactive: -3.11%"}
{"molecule": "Cc1cc(Br)c(NC(=O)c2c(-c3c(Cl)cccc3Cl)noc2C)c(Br)c1", "Potency": "active: 10.4 µM"}
{"molecule": "CC(=O)c1ccc(S(=O)(=O)Nc2ccc(-n3c(C)nc4ccccc4c3=O)cc2)cc1", "activity change, negative = inhibition": "inactive: 5.48%"}
{"molecule": "CN(CC(=O)NC1CCN(Cc2ccccc2)CC1)S(=O)(=O)c1ccc(Cl)s1", "Potency": "inconclusive: 18.5 µM [inhibitor, single point]"}
{"molecule": "O=C(OCc1nc2ccccc2s1)c1cccc(S(=O)(=O)N2CCOCC2)c1", "activity change, negative = inhibition": "inactive: 114%"}
{"molecule": "c1ccc(Cn2nnc3c(N4CCCCCC4)ncnc32)cc1", "Potency": "inconclusive: 8.28 µM [inhibitor, partial curve]"}
{"molecule": "CN(Cc1ccc(Cl)cc1Cl)C(=O)c1cc(=O)c2ccccc2o1", "activity change, negative = inhibition": "inactive: -8.2%"}
{"molecule": "COc1ccccc1N1CCN(C2CCCN(C(=O)COc3ccccc3Cl)C2)CC1", "note": "(stereo not drawn)", "Potency": "inconclusive: 14.7 µM [inhibitor, single point]"}
{"molecule": "Cc1cc(C)c(C)c(S(=O)(=O)Nc2ccc3cn[nH]c3c2)c1C", "Potency": "inconclusive: 20.8 µM [inhibitor, single point]"}
{"molecule": "Cc1nc(N2CCCCC2C)c2c(C)c(C(=O)Nc3cccc(C(F)(F)F)c3)sc2n1", "note": "(stereo not drawn)", "Potency": "inconclusive: 7.38 µM [inhibitor, partial curve]"}
{"molecule": "CCCCCCCSc1cc(OC)c(CCN(C)C)cc1OC", "Potency": "inconclusive: 3.7 µM [inhibitor, full curve]"}
{"molecule": "CC1=C(C)CS(=O)N(c2ccc(S(N)(=O)=O)cc2)C1", "note": "(stereo not drawn)", "activity change, negative = inhibition": "inactive: -0.169%"}
{"molecule": "Cc1cc(C)cc(NC(=O)CSc2n[nH]c(-c3cccnc3)n2)c1", "activity change, negative = inhibition": "inactive: -1.85%"}
{"molecule": "CSc1ccc(/C=C/C(=O)OCC(=O)N(C)CCC#N)cc1", "activity change, negative = inhibition": "inactive: 39.8%"}
{"molecule": "O=C(O)COCC(=O)N1CCCN(c2nccc(C(F)(F)F)n2)CC1", "activity change, negative = inhibition": "inactive: 1.81%"}
{"molecule": "O=C(NC12CC3CC(CC(C3)C1)C2)c1ccc(N2CCNCC2)c([N+](=O)[O-])c1", "Potency": "active: 5.22 µM"}
{"molecule": "CN(C)C(CNC(=O)c1cc(S(=O)(=O)N(C)Cc2ccccc2)ccc1Cl)c1ccco1", "note": "(stereo not drawn)", "Potency": "inconclusive: 11.7 µM [inhibitor, single point]"}
{"molecule": "O=c1[nH]c(C2CCN(S(=O)(=O)c3ccc4c(c3)OCCO4)CC2)nc2c1nnn2Cc1c(F)cccc1Cl", "activity change, negative = inhibition": "inactive: -21.6%"}
{"molecule": "CC1CN(c2ncc(/C=N/NC(=O)c3ccccc3O)s2)CC(C)O1", "note": "(stereo not drawn)", "Potency": "inconclusive: 2.08 µM [inhibitor, full curve]"}
{"molecule": "O=C(Cn1c2ccc(F)cc2c2nc3n(c(=O)c21)CCS3)Nc1ccccc1C(F)(F)F", "Potency": "inconclusive: 9.28 µM [inhibitor, partial curve]"}
{"molecule": "Cc1ccc(OCCOCCn2cnc3ccccc3c2=O)cc1C", "activity change, negative = inhibition": "inactive: 7.02%"}
{"molecule": "COC(=O)c1cn(CCOc2ccccc2OC)c2ccccc12", "activity change, negative = inhibition": "inactive: -9.22%"}
{"molecule": "CCSc1nc2ccccc2n1C(=O)/C=C/c1ccc(OC)c(OC)c1", "activity change, negative = inhibition": "inactive: 1.09%"}
{"molecule": "N#C/C(=C\\c1cn(CCOc2ccccc2)c2ccccc12)C(=O)NCC1CCCO1", "note": "(stereo not drawn)", "Potency": "active: 9.28 µM"}
{"molecule": "CCCN(C(=O)c1c(CC)noc1C)c1c(N)n(Cc2ccccc2)c(=O)[nH]c1=O", "activity change, negative = inhibition": "inactive: 1.86%"}
{"molecule": "Cc1ccc(NC(=O)c2nc[nH]c2C(=O)N(C)Cc2ccccc2)cc1", "Potency": "inconclusive: 2.94 µM [inhibitor, single point]"}
{"molecule": "COc1ccccc1NC(=O)Cn1c(=O)oc2cc(S(=O)(=O)N3CCCC3)ccc21", "Potency": "inconclusive: 0.465 µM [inhibitor, full curve, poor fit]"}
{"molecule": "CCC1(c2ccccc2)NC(=O)N(CC(=O)Nc2ccc(S(N)(=O)=O)cc2)C1=O", "note": "(stereo not drawn)", "activity change, negative = inhibition": "inactive: 12.1%"}
{"molecule": "Oc1ccccc1/C=N/Nc1ccnc(SCc2ccccc2)n1", "Potency": "active: 10.4 µM"}
{"molecule": "Cc1cc(NC(=O)CCC(=O)N(CCC(C)C)C(C(=O)NCC2CCCO2)c2ccccc2C)no1", "note": "(stereo not drawn)", "Potency": "inconclusive: 9.28 µM [inhibitor, partial curve]"}
{"molecule": "COc1ccc(C(=O)N2CCC3(CC2)OCCO3)cc1", "activity change, negative = inhibition": "inactive: 9.05%"}
{"molecule": "C=CCn1c(SCC(=O)N2CC(=O)Nc3ccccc32)nc2scc(-c3ccccc3)c2c1=O", "Potency": "active: 8.28 µM"}
{"molecule": "Fc1ccc(Sc2cc(Cl)c(-c3ccccc3)nn2)cc1", "Potency": "inconclusive: 11.7 µM [inhibitor, partial curve]"}
{"molecule": "Cn1c(=O)c2c(nc(N3CCCCC3)n2CC(O)COc2ccccc2)n(C)c1=O", "note": "(stereo not drawn)", "activity change, negative = inhibition": "inactive: 0%"}
{"molecule": "O=C(NC1=NCCS1)c1ccc(Cl)cc1", "activity change, negative = inhibition": "inactive: 208%"}
{"molecule": "O=C(CSc1ccc(-c2cccc([N+](=O)[O-])c2)nn1)NCc1ccccc1", "activity change, negative = inhibition": "inactive: 7.99%"}
{"molecule": "CC1(C)CNC(=O)CC(C)(C)N1", "activity change, negative = inhibition": "inactive: 8.49%"}
{"molecule": "O=C(CN1C(=O)S/C(=C\\c2cccc(Cl)c2)C1=O)NC1C=CS(=O)(=O)C1", "note": "(stereo not drawn)", "Potency": "inconclusive: 10.4 µM [inhibitor, partial curve]"}
